Reference: PubChem BioAssay AID504466 (National Center for Advancing Translational Sciences (NCATS), 2011)
The campaign covered roughly 330,000 compounds. About 4,200 (1.3%) were called active. This list was built around the results that the source calls inconclusive (neither active nor inactive); the mix of calls is not that of the screen. Calls follow the shape of the dose curve; as a rule, active = well fitted activation curve with a large enough effect; inconclusive = small, poorly fitted or top-dose-only effect; inactive = no such curve, though single readings can be large or run the other way. Where the call is inconclusive, the potency comes from a doubtful curve fit.
Potency is read from the fitted curve at half-maximal effect; tags tell the direction and shape of the fitted curve.

Assay: qHTS screen for small molecules that induce genotoxicity in human embryonic kidney (HEK293T) cells expressing luciferase-tagged ELG1; also: nearly all actives have a fitted effect of over 60% in size
Conditions: HEK293T ELG1-luciferase reporter, luminescence, 16 h; series mostly up to 46 µM
Description: NIH Molecular Libraries Probe Production Network [MLPCN] NIH Chemical Genomics Center [NCGC] MLPCN Grant: 1 R03 MH092164-01 Assay Provider: Kyungjae Myung, NHGRI, NIH Keywords: MLPCN, qHTS, NCGC, genotoxicity, cancer Assay Overview: Cancer cells divide rapidly compared to normal cells in the body. During cell division, cancer cells need to duplicate their genome by DNA replication. The failure of genome duplication leads to cancer cells' death. Therefore, inhibitors of DNA replication could specifically kill cancer cells. Based on this concept, many chemotherapeutic agents were developed and have been used to treat cancer patients. However, there are a limited number of agents available in the clinical setting, and some of those that do exist have low efficacy and severe side effects. Therefore, if we can find the compounds that effectively block DNA replication either by directly damaging DNA or by inhibiting other cellular mechanisms, the options for cancer treatment will be broadened. With this in mind, we developed a quantitative high-throughput ELG1-luciferase reporter gene assay. Since the level of human ELG1 protein is enhanced in response to genetic stresses, increases in luciferase activity can be used to identify compounds that cause genetic stress.
Assay Protocol Summary: For genotoxicity screening, 2,000 cells in 5 uL/well were dispensed into white, solid-bottom 1536-well plates using a solenoid-based dispenser. Following transfer of 23 nL compound or DMSO vehicle by a pin tool, the plates were incubated 16 hr at 37 °C and 5% CO2. 5 ul ONE-Glo (Promega) was then added to each plate and following a 30 min incubation at room temperature, luciferase activity was quantified on a ViewLux CCD-based plate reader.
In the case of `C/C(=N\N1CCN(Cc2ccccc2)CC1)c1ccco1`, the Potency is reported as inconclusive: 18.3 µM [activator, partial curve, poor fit]. For `c1ccc2sc(NN=C3CCCC3)nc2c1`, the Potency was inconclusive: 1.16 µM [activator, partial curve]. For `CCCOC(=O)c1ccc(NC(=O)CC(C)(C)C)cc1`, the Potency was inconclusive: 25.9 µM [activator, partial curve, poor fit]. In the case of `Cc1c(Cl)cccc1NC(=S)NC1CCN(C(C)C)CC1`, the Potency is reported as “inactive”. In the case of `CCSc1nnc(-c2ccc(OC)cc2)o1`, the Potency is reported as active: 7.08 µM. For `CCCCCC[n+]1c(-c2ccccc2)csc1Nc1ccccc1`, the Potency was “inactive”. With `Cc1ccnc2nc(C(=O)Nc3ccc4c(c3)OCO4)nn12` the Potency was active: 2.59 µM. For `COC(=O)c1ccc(OCCn2cnc3ccccc3c2=O)cc1`, the Potency was inconclusive: 11.6 µM [activator, partial curve, poor fit]. For `CCOc1ccc(Nc2nc(Cc3nnc(SCC(=O)O)o3)cs2)cc1`, the Potency was “inactive”. For `CCCC(=O)Nc1ccc(C(=O)COC(=O)C2=COCCO2)cc1`, the Potency was “inactive”. In the case of `Cc1noc(C)c1COc1ccc(C(=O)NCc2ccccn2)cc1`, the Potency is reported as inconclusive: 25.9 µM [activator, single point]. For `CCCCCCCOC(=O)c1ccc(OC(=O)c2cccnc2)cc1`, the Potency was inconclusive: 18.4 µM [activator, single point]. In the case of `CCc1ccc(Nc2nnc(SCC(=O)N(C)C3CCS(=O)(=O)C3)s2)cc1` (stereo not drawn), the Potency is reported as inconclusive: 23.1 µM [activator, partial curve, poor fit]. With `CC(C)c1cc(C(=O)Nc2cccnc2)no1` the Potency was inconclusive: 8.2 µM [activator, partial curve]. In the case of `COc1ccc(NC(=O)NC(=O)c2ccccc2)cc1`, the Potency is reported as inconclusive: 1.3 µM [activator, full curve]. In the case of `Cc1ccc(-c2csc(-c3cc(C)on3)n2)cc1`, the Potency is reported as inconclusive: 18.3 µM [activator, partial curve, poor fit]. In the case of `Cc1ccc(OCC(=O)O/N=C(\N)c2ccncc2)c(C)c1`, the Potency is reported as active: 14.6 µM. For `CCOc1ccc(C(CC(=O)O)NC(=O)c2sc3ccccc3c2Cl)cc1` (stereo not drawn), the Potency was “inactive”. In the case of `Cc1nc(N)sc1-c1csc(Nc2ccccn2)n1`, the Potency is reported as inconclusive: 0.58 µM [activator, full curve, poor fit]. For `CCC(=O)N/C(N)=N/c1nc(C)c2cc(OC)ccc2n1`, the Potency was active: 10.3 µM. In the case of `Nc1nc2nc(-c3ccc(F)cc3)cc(C(F)(F)F)n2n1`, the Potency is reported as inconclusive: 18.3 µM [activator, partial curve]. In the case of `CC(C)(C)c1ccc(OCCCC(=O)N2CCOCC2)cc1`, the Potency is reported as inconclusive: 20.6 µM [activator, partial curve, poor fit]. With `O=C(N/N=C/c1ccccc1O)C(=O)N1CCCCCC1` the Potency was inconclusive: 29.1 µM [activator, single point]. With `O=C(Nc1nnc(-c2ccc3c(c2)CCCC3)o1)c1ccccc1Cl` the Potency was “inactive”. In the case of `CC1CN(S(=O)(=O)c2ccc(C(=O)Nc3sc4c(c3C(N)=O)CCN(C)C4)cc2)CC(C)O1` (stereo not drawn), the Potency is reported as inconclusive: 20.6 µM [activator, partial curve, poor fit]. In the case of `CCCCOc1ccc(C(=O)Nc2ccncc2)cc1`, the Potency is reported as active: 13 µM. For `CC(C)(CNC(=O)c1ccc(-c2cccc(C(F)(F)F)c2)o1)N1CCOCC1`, the Potency was “inactive”. With `Cn1nnnc1SCC(=O)Nc1ccc2c(c1)OCCO2` the Potency was inconclusive: 5.17 µM [activator, partial curve]. With `Cc1ccc(OCCCn2c(=O)sc3ccccc32)cc1` the Potency was “inactive”. With `COC(=O)c1ccc(C(=O)NCCCCO)cc1` the Potency was “inactive”. With `Fc1ccc(COc2ccc(C(=S)N3CCCC3)cc2)cc1` the Potency was inconclusive: 20.6 µM [activator, single point]. In the case of `O=C(CCS(=O)(=O)c1ccccc1)Nc1cccc(-c2nc3ccccc3s2)c1`, the Potency is reported as inconclusive: 2.91 µM [activator, partial curve, poor fit]. With `CCN(CC)c1ccc(CNc2ccc(Br)cn2)cc1` the Potency was active: 10.3 µM. In the case of `CCOC(=O)c1cnc(-n2nc(C)cc2C)nc1NCCO`, the Potency is reported as “inactive”. With `O=C(NCCc1ccccc1)c1cccc([N+](=O)[O-])c1` the Potency was inconclusive: 18.4 µM [activator, partial curve, poor fit]. For `CCCc1nnc(SCC(=O)N2CCCC(C)C2)n1CCOC` (stereo not drawn), the Potency was “inactive”. For `O=C(NCCCn1ccnc1)c1cc2c(s1)CCCCC2`, the Potency was inconclusive: 20.6 µM [activator, partial curve, poor fit]. For `c1ccc(CCc2nc(-c3ccccc3)no2)cc1`, the Potency was inconclusive: 18.4 µM [activator, partial curve, poor fit]. With `O=C(N/N=C/c1cc(Br)ccc1O)c1ccccc1Cl` the Potency was inconclusive: 29.1 µM [activator, partial curve, poor fit]. With `COc1ccc(C(=O)NCc2nnc(SCC(=O)NC3CCCCC3)o2)cc1` the Potency was “inactive”. For `CSCC[C@@H](C(=O)Nc1ccc2c(c1)OCCO2)N1Cc2ccccc2C1=O`, the Potency was inconclusive: 18.4 µM [activator, partial curve]. In the case of `COC(=O)C1C(=O)C=C(Nc2ccc(F)cc2)CC1c1ccc(OC)cc1` (stereo not drawn), the Potency is reported as inconclusive: 23.1 µM [activator, partial curve, poor fit]. In the case of `COc1ccc(CNC(=O)Nc2ccc(OC)cc2)cc1`, the Potency is reported as “inactive”. In the case of `O=[N+]([O-])c1ccc(-c2nnc(S)n2-c2ccccc2)cc1`, the Potency is reported as inconclusive: 29.1 µM [activator, partial curve, poor fit]. With `O=c1cc(-c2ccccc2)nc2nc(-c3ccco3)[nH]n12` the Potency was inconclusive: 23.1 µM [activator, single point]. In the case of `Cc1oc(C(=O)O)cc1COc1ccc2c3c(c(=O)oc2c1)CCC3`, the Potency is reported as inconclusive: 29.1 µM [activator, partial curve, poor fit]. For `C=CCN1C(=O)S/C(=C\c2ccc(N3CCOCC3)cc2C)C1=O`, the Potency was inconclusive: 2.51 µM [activator, partial curve, poor fit]. In the case of `COc1ccc(NC(=O)Nc2ccc3c(c2)CCC3)cc1`, the Potency is reported as active: 20.6 µM. With `CCCCc1ccc(NC(=O)COCC)cc1` the Potency was active: 20.6 µM. For `O=C(NCCCN1CCOCC1)c1cccc(S(=O)(=O)N2CCc3ccccc3C2)c1`, the Potency was “inactive”. In the case of `O=C(NCCCn1ccnc1)c1cc(-c2ccc3c(c2)OCO3)on1`, the Potency is reported as inconclusive: 20.6 µM [activator, partial curve, poor fit]. In the case of `CC(C)c1cc(C(=O)Nc2cccc(C(F)(F)F)c2)no1`, the Potency is reported as inconclusive: 14.6 µM [activator, single point]. For `COc1cccc(Nc2cc(C)c3ccccc3n2)c1`, the Potency was inconclusive: 20.6 µM [activator, partial curve, poor fit]. In the case of `CCOc1ccc(CCNC(=O)c2ccc(CS(=O)Cc3ccc(Cl)cc3)o2)cc1OCC` (stereo not drawn), the Potency is reported as “inactive”. In the case of `COc1ccc(C(=O)OCC(=O)c2c[nH]c3ccccc23)c(OC)c1`, the Potency is reported as “inactive”. In the case of `CC(C)(O)c1cc(=O)sc2nc3ccccc3n12`, the Potency is reported as inconclusive: 14.6 µM [activator, partial curve]. In the case of `CC(=O)Nc1ccc(-c2csc(Nc3ccccn3)n2)cc1`, the Potency is reported as inconclusive: 1.3 µM [activator, partial curve, poor fit]. With `O=C(NCCS(=O)(=O)NCc1ccccc1Cl)c1ccc2c(c1)OCO2` the Potency was “inactive”. For `O=C(Nc1ccc2ccccc2c1)c1ccc(Cl)cc1Cl`, the Potency was active: 2.06 µM. With `O=C(c1coc(=O)c(Br)c1)N1CCCc2ccccc21` the Potency was inconclusive: 35.5 µM [activator, single point]. With `Cc1ccc(NC(=O)Nc2ccc(Cl)cn2)cc1` the Potency was inconclusive: 4.61 µM [activator, partial curve, poor fit]. With `CCn1c(SCC(=O)Nc2nc3c(s2)CCCC3)nnc1-c1ccccc1` the Potency was “inactive”. With `Cc1nc(C)n(C)c(=O)c1-c1ccccc1` the Potency was “inactive”. For `O=C1NC(=O)/C(=C\c2ccc(Cl)nc2)S1`, the Potency was inconclusive: 20.6 µM [activator, single point]. With `O=C(O)/C(=C\c1ccc(Br)cc1)NC(=O)c1cccs1` the Potency was “inactive”. For `CSc1nnc(NC(=O)C2CCCCC2)s1`, the Potency was inconclusive: 20.6 µM [activator, single point]. For `COc1ccc(N2CCN(C(=O)Cn3nnc(-c4ccc(N(C)C)cc4)n3)CC2)cc1`, the Potency was “inactive”. For `Cc1ccc(C(=O)/C=C/Nc2ccc(S(=O)(=O)Nc3cc(C)nc(C)n3)cc2)cc1`, the Potency was “inactive”. For `CC(=O)Nc1ccc(NC(=O)CSc2ccc(C)cc2)cc1`, the Potency was “inactive”. For `Cc1ccc(NC(=O)Nc2nnc(Cc3ccc([N+](=O)[O-])cc3)s2)cc1`, the Potency was inconclusive: 20.6 µM [activator, partial curve, poor fit]. With `O=C(c1ccco1)N1CCN(c2ccc(N3CCCCC3)nn2)CC1` the Potency was inconclusive: 16.4 µM [activator, partial curve]. For `Brc1c(OCCOCCn2cncn2)ccc2ccccc12`, the Potency was inconclusive: 12.6 µM [activator, single point]. In the case of `CCN1CCN(c2ccc(NC(=O)c3ccc(Br)o3)cc2)CC1`, the Potency is reported as active: 16.4 µM. For `COc1cc(C=C2C(=O)c3ccccc3C2=O)cc(OC)c1OC`, the Potency was inconclusive: 23.1 µM [activator, single point]. In the case of `C=Cn1cc[n+](CC(=O)c2ccc(OC)cc2)c1`, the Potency is reported as “inactive”. With `Nc1nc(Nc2ccccc2)nc(C(F)(F)F)n1` the Potency was “inactive”. For `Cc1c(C(=O)N2CCOCC2)c(S(=O)(=O)Nc2ccccc2)c(C)n1C`, the Potency was “inactive”. For `C/C=C/c1ccc(OCCCCn2cncn2)c(OC)c1`, the Potency was inconclusive: 25.9 µM [activator, partial curve, poor fit].
